# Experimental data published in the RNAGym collection of RNA variant scans (doi:10.7554/elife.90254).
# The source gives no read counts; variants with many changes may rest on few reads.
# B1: OR4K15 (parent)
# chain: GUUAACGGUCAUAGGCCAUGGAAACUAGGAGCACCAUUUCGCUGCCAGUGAAGAAAUGAACAAAGAAAAUCUGGGCCAGGCAGGCAUCAAAAGAAAUAGUCUUGCGCUCAACCAGAAAGUCUGUAAUCAUUUUAAGGGUA
# Variants of: B1
# Experiment: self-cleavage, relative activity (ratio to wild type); higher = more cleavage; in vitro, sequencing; the parent is a self-cleaving ribozyme
row,Variant,self-cleavage
1,GUUAACGGUCAUAGGCCAUAGAAACUAGGGGCACCACUUCGCUGCCAGUGAAGAAAUGAACAAAGAAAAUCUGGGCCAGGCAGGCAUCAAAAGAAAUAGUCUUGCGCUCAACCAGAAAGUCUGUAAUCAUUUUAAGGGUA [G20A A30G U37C],1.22
2,GUUAACGGUCAUAGGCCAGGGAAACUAGGAGCACCAUUUCGCUGCCAGUGAAGAAAUGAACAAAGAAAAUCUGGGCCAGGCAGGCUUCAAAAGAAAUAGUCUUGCGCUCAACCUGAAAGUCUGUAAUCAUUUUAAGGGUA [U19G A86U A114U],0.07
3,GUUAACGGUCAUAGGCCAUAGAAACUAGGAGCACCAUUUCGCUGCCAGUGAAGAAAUGAACAAAGAAAAUCUGGCCCAGGCAGGCAUCAAAAGAAGUAGUCUUGCGCUCAACCAGAAAGUCUGCAACCAUUUUAAGGGUA [G20A G75C A96G U124C U127C],0.02
4,GUUAACGGUCAUAGGCCAGGGAAACUAGGAGCACCAUUUCGCUGCCAGUGAAGUAAUGAACAAAGAAAAUCUGGGCCAGGCAGGCAUCAAAAGAAAUAGUCUUGCGCUCAACCAGAAAGUCUGAAAUCAUUUUAAGGGUA [U19G A54U U124A],0.6
5,GUUAACGGUCAUAGGCCAUAGAAACUAGGAGCACCAUUGCGCUGCCAGUGAAGAAAUGAACAAAGAAAAUCUGGGCCAGGCUGGCAUCAAAAGAAAUAGUCUUGCGCUCAACCAGAAAGUCUGUAAUCAUAUUAAGGGUA [G20A U39G A82U U131A],0.12
6,GUUAACGGUCAUAGGCCAUAGAAACUAGGAGCACCAUUUCGCUGCCAGUGAAGAAAUGAACAAAGAAAAUCUGGGCCAGGCAGGCAUCAAAAGAAAUAGUCUUGCGCUCAACCAUAAGGUCUGUAAUCAUUUUAAGGGUA [G20A G115U A118G],0.02
7,GUUAACGGUCAUAGGCCAUAGAAACUAGGAGCACCAUUUCGCUGCCAGUGAAGAAAUGAACAAAGAAAAUCUGGGCCAGGCAGGCGUCAAAAGAAAUAGUCUUGCGCUCAACCAGAAAGUCUGUAAUCAUUUCAAGGGUA [G20A A86G U133C],1.31
8,GUUAACGGUCAUAGGCCACGGAAACUAGGAGCACCAUUUCGCUGCCAGUGAAGAAAUGAACAAAGAAAAUCUGGGCCAGGCAGGCAUCAAAAGAAAUAGUCUUGCGCUCAACCAGAAAGACUGUAAUCACUUUAAGGGUA [U19C U120A U130C],0.52
9,GUUAACGGUCAUAGGCCACGGAAACUAGGAGCACCAUUUCGCUGCCAGUGAAGAAAUGAACAAAGAAAAUCUGGGCCAGGCAGGCAUCAAAAGAAAUAGUCUAGCGCUCAUCCAGAAAGUCUGUAAUCAUUAUAAGGGUA [U19C U103A A111U U132A],0.03
10,GUUAACGGUCAUAGGCCACGGAAACUAGGAGCACCAUUUCGCUGCCAGUGAAGAAAUGAACAAAGAAAAUCUGGGCCAGGCAGGCAACAAAAGAAAUAGUCCUGCGCUCAACCAGAAAGUCUGUAAUCAUUUUAAGGGUA [U19C U87A U102C],2.38
11,GUUAACGGUCAUAGGCCAUAGAAACUAGGAGCACCAUUUCGCUGCCAGUGAAGAAAUGAACAAAGAAAAUCUGGGCCAGGCAGGCAUCAAAAGAAAAAGUCUUGCGCUCAACCAGAAUGUCUGUAAUCUCUUUAAGGGUA [G20A U97A A118U A129U U130C],0.37
12,GUUAACGGUCAUAGGCCACGGAAACUAGGAGCACCAUUUCGCUGCCAGUGAAGAAAUGAACAAAGAAAAUCUGGGCCAGGCAGGCAUCAAAAGAAAUAGUCCUGCGCUCAACCAGUAAGUCUGUAAUCAUUUUAAGGGUA [U19C U102C A116U],0.56
13,GUUAACGGUCAUAGGCCAUAGAAACUAGGAGCACCGUUUCGCUGCCAGUGAAGAAAUGAACAAAGAAAAUCUGGGCCAGGCAGGCAUCAAAAGAAAUAGUCUUGCGCUCAACCAGAAUGUCUGUAAUCAUUUUAAGGGUA [G20A A36G A118U],1.15
14,GUUAACGGUCAUAGGCCACGGAAACUAGGAGCACCAUUUCGCUGCCAGUGAAGAAAUGAACAAAGAAAAUCUGGGCCAGGCAGGCACCAAAAGAAAUAGUCUUGCGCACAACCAGAGAGUCUGUAAUCAUUUUAAGGGUA [U19C U87C U108A A117G],0
15,GUUAACGGUCAUAGGCCAUAGAAACUAGGAGCACCAUUUCGCAGCCAGUGAAGAAAUGAACAAAGAAAAUCUGGGCCAGGCAGGCAUCAAAAGAAAUAGUCUUGCGCUCAACCAGAAAGUCUGUAAUCAAUUUAAGGGUA [G20A U43A U130A],0.95
16,GUUAACGGUCAUAGGCCAUAGAAACUAGGAGCACCAUUUCGCUGCCAGUGAAGAAAUGAACAAAGAAAAUCUGGGCCAGGCAGGCAUCAAAAGAAAUAGUCUUGCGCUCAACCAGUAAGUCUGUGAUCAUUUUAAGGGUA [G20A A116U A125G],0.03
17,GUUAACGGUCAUAGGCCACGGAAACUAGGAGCACCAUUUCGCUGCCAGUGAAGAAAUGAACAAAGAAAAUCUGGGCCAGGCAGGCACCAAAAGAAAUAGUCUUGCGCUCGUCCAGAAAGUCUGUAAUCAUUUUAAGGGUA [U19C U87C A110G A111U],0.04
18,GUUAACGGUCAUAGGCCAGGGAAACUAGGAGCACCAUUUCGCUGCCAGCGAAGAAGUGAACAAAGAAAAUCUGGGCCAGGCAGGCAUCGAAAGAAAUAGUCUUGCGCUCAACCAGAAAGUCCGUAAUCUUUUUAAGGGUA [U19G U49C A56G A89G U122C A129U],1.28
19,GUUAACGGUCAUAGGCCAUAGAAACUGGGAGCACCAUUUCGCUGCCAGUGAAGAAAUGAGCAAAGAAAAUCUGGGCCAGGCAGGCAUCAAAAGAAGUAGUCUUGCGCUCAACCAGAAAGUCUGUAAUCAUUUUAAGGGUA [G20A A27G A60G A96G],0.2
20,GUUAACGGUCAUAGGCCAUUGAAACUAGGAGCACCAUUUCGCUGCCGGUGAAGGAAUGAACAAAGAAAAUCUGGGCCAGGCAGGCAUCAAAGGAAAUAGUCUUGCGCUCAACCAGAAAGUCUGUAAUCAUUUUAAGGGUA [G20U A47G A54G A92G],1.3
21,GUUAACGGUCAUAGGCCACGGAAACUAGGAGCACCAUUUCGCUGCCAGUGAAGAAAUGAACAAAGAAAAUCUGGGCCAGGCAGGCAACAAAAGAGAUAGUCUUGCGCUCAACCAGAAAGUCUGUAAUCAUUUUAAGGGUA [U19C U87A A95G],2.17

row,Variant,self-cleavage
1,GUUAACGGUCAUAGGCCAGGGAAACUGGGAGCACCAUUUCGCUGCCAGUGAAGAAAUGAACAAAGAAAAUCUGGGCCAGGCAGGCAUCAAAAGAGAUAGUCUUGCGCUCAACCAGAAAGUCUGUAAUCAUUUUAAGGGUA [U19G A27G A95G],1.75
2,GUUAACGGUCAUAGGCCAUAGAGACUAGGAGCACCAUUUCGCUGCCAGUGAAGAAAUGAACAAAGAAAAUCUGGGCCAUGCAGGCACCAAAAGAUAUAGUCUUGCGCUCAACCAGAAAGUCUGUAAUCAUUUUAAGGGUA [G20A A23G G79U U87C A95U],0.13
3,GUUAACGGUCAUAGGCCAUAGAAACUAGGAGCGCCAUUUCGCUGCCAGUGAAGAGAUGAACAAAGAAAAUCUGGGCCAGGCAGGCAUCAAAAGAAAUAGUCUUGCGCUCAACCAGAAAGUCUGUAAUCAUUUUAAGGGUA [G20A A33G A55G],0.72
4,GUUAACGGUCAUAGGCCAGGGAAACUAGGAGCACCAUUUCGCUGCCAGUGAAGAAAUGAACAAAGAAAAUCUGGGCCAGGCAGGCAUCAAAAGAAAUAGUCUUGCGCUCAACCAGAAGGUCUGAAAUCAUUUUAAGGGUA [U19G A118G U124A],0.89
5,GUUAACGGUCAUAGGCCAUAGAAACUAGGAGCACCAUUUCGCUGCCAGUGAAGAAAUGAGCAAAGAAAAUCUGGGCCAGGCAGGCAUCGAAAGAAAUAGUCUUGCGCUCAACCAGAGAGUCUGUAAUCAUUUUAAGGGUA [G20A A60G A89G A117G],1.94
6,GUUAACGGUCAUAGGCCAUAGAAACUAGGAGCACCAUUUCGCUGCCAGGGAAGGAAUGAACAAGGAAAAUCUGGGCCAGGCAGGCAUCAGAAGAAAUAGUCUUGCGCUCAACCAGAAAGUCUGUAAUCAUUUUAAGGGUA [G20A U49G A54G A64G A90G],1.07
7,GUUAACGGUCAUAGGCCAUAGAAACUAGGAGCACCAUUUCGCUGCCAGUGAAGAAAUGAACAAAGAAAAUCUGGGCCAGGCAGGCAUCAAGAGAAAUAGUCUUGCGCUCAACCAGAAAGUCUGUAAUCUUUUUAAGGGUA [G20A A91G A129U],0.75
8,GUUAACGGUCAUAGGCCACGGAAACUAGGAGCACCAUUUCGCUGCCAGUGAAGAAAUGAACAAAGAAAAUCUGGGCCAGGCAGGCAUCAAAAGAAAUAGUCCUGCGCUCGACCAGAAAGUCUGUAAUCAUUUUAAGGGUA [U19C U102C A110G],0.25
9,GUUAACGGUCAUAGGCCAUAGAAACUAGGAGCACCAUUUCGCUGCCAGUGAAGAAAUGAACAAAGAAAAUCUGGGCCAGGCAGGCAUCAAAAGAGAUAGUCUUGCGCUCAGCCAGAAAGUCUGUAAUCAUUUCAAGGGUA [G20A A95G A111G U133C],0.06
10,GUUAACGGUCAUAGGCCAUAGAAACUAGGAGCACCAUUUCGCUGCCAGUGAAGAAGUGAACAAAGAAAAUCUGGGCCAGGCAGGCAUCAAGAGAAAUAGUCUUGCGCUCAACCAGAAAGUCUGUAGCCAUUUUAGGGGUA [G20A A56G A91G A126G U127C A135G],0.44
11,GUUAACGGUCAUAGGCCAUAGAAACUAGGAGCACCACUUCGCUGCCAGUGAAGAAAUGAACAAAGAAAAUCUGGGCCAGGCAGGCAUCAAAAGAAAUAGUCUUGCGCUCAACCAGAAAGUCUGUGAUCAUCCUAAGGGUA [G20A U37C A125G U131C U132C],0.18
12,GUUAACGGUCAUAGGCCACGGAAACUAGGAGCACCAUUUCGCUGCCAGUGAAGAAAUGAACAAAGAAAAUCUGGGCCAGGCAGGCAUCAAAAGAAAUAGUCCUGCGCUCAACCAGAGAGUCUGUAAUCAUUUUAAGGGUA [U19C U102C A117G],2.16
13,GUUAACGGUCAUAGGCCAUAGAAACUAGGAGCACCAUUUCGCUGCCAGUGAAGAAAUGAACAAAGAAAAUCUGGGCCAGGCAGGCAUCAAAAGAAAUAAUCUUGCGCUCAACCAGAAAGCCUGUAAUCAUCUUAAGGGUA [G20A G99A U120C U131C],0.08
14,GUUAACGGUCAUAGGCCACGGAAACUAGGAGCACCAUUUCGCUGCCAGUGAAGAAAUGAACAAAGAAAAUCUGGGCCAGGCAGGCAUCAAAAGAAAUAGUCUCGCGCUCAACCAGAAAGUCUGCAAUCAUUUUAAGGGUA [U19C U103C U124C],0.42
15,GUUAACGGUCAUAGGCCAGGGAAACUAGGAGCACCAUCUCGCUGCCAGUGAAGAAAUGAACAAAGAAAAUCUGGGCCAGGCAGGCAUCAAAAGAAAUAGUCUUGCGCUCAACCAGAAAGCCUGUAAUCAUUUUAAGGGUA [U19G U38C U120C],0.48
16,GUUAACGGUCAUAGGCCAUAGAAACUAGGACCACCAUUUCGCUGCCAGUGAAGGAAUGAACAAAGAAAAUCUGGGCCAGGCAGGCAUCAGUAGUAAUAGUCUUGCGCUCAACCAGAAAGUCUGUAAUCAUUUUAAGGGUA [G20A G31C A54G A90G A91U A94U],0.67
17,GUUAACGGUCAUAGGCCAUAGAAACUAGGAGCACCAUUUCGCUGCCAGUGAAGGAAUGAACAAAGAAAAUCUGGGCCAGGCAGGCAUCAAAAGAAAUAGUCUUGCGCUCAACCAGAAAGUCUGUAAUCAUUCUAAGGGUA [G20A A54G U132C],2.49
18,GUUAACGGUCAUAGGCCAUAGAAACUAGGAGCACCACUCCGCUGCCAGUGAAGAAAUGUACAAAGAAAAUCUGGGCCAGGCAGGCAUCAAAAAAAAUAGUCUUGCGCUCAACCAGAAAGUCUGCAAUCAUUUUAAGGGUA [G20A U37C U39C A59U G93A U124C],0.7
19,GUUAACGGUCAUAGGCCACGGAAACUAGGAGCACCAUUUCGCUGCCAGUGAAGAAAUGAACAAAGAAAAUCUGGGCCAGGCAGGCACCAAAAGAAGUAGUCUUGCGCUCAACCAGAAAGUCUGUAAUCAUUUUAAGGGUA [U19C U87C A96G],1.75
20,GUUAACGGUCAUAGGCCAUAGAAACUAGGAGCACCAUUUCGCUGCCAGUGAAGGAAUGAACAAAGAAAAUCUGGGCCAGGCAGGCAUCAAAAGAAAUAGUCUUGCACUCAACCAGAAAGUCUGUAAUUAUUUUAAGGGUA [G20A A54G G106A C128U],0.02
